This passage reports binding signal results from PMC12136788.

First the molecules themselves.
T1: UNK ZnF1-3 (human, UniProt Q9C0B0 31-174)
T1 sequence: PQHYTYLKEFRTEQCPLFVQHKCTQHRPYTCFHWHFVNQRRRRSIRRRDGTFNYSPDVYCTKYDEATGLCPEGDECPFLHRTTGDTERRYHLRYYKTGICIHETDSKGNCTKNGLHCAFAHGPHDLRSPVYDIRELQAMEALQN

B1: chr2:15768762:15768763:+_ENSG00000079785_ENST00000233084|hu_mus|FALSE|FALSE (ssRNA)
RNA: GGGAGUUCUACAGUCCGACGAUCAGGCAGGGUGACGUUGAUCACAUAAGGAACGCCAUGGAUAUCAAUCCCUCUAGCAGCUACAUCUGUGCAAAUCAAGAAUCUUACGUCUCCUUUCUUAAAUCGUUCCAAGUUUUGCUUUCUCAACAGAGGAUUGAGCAUCA
B2: chr18:35732517:35732518:+_ENSMUSG00000037236_ENSMUST00000166793|mus_hu|motif|central (ssRNA)
RNA: GGGAGUUCUACAGUCCGACGAUCUAUAGAGCACAGAUGGGGAUAACCCUUCGGUAAGAGUCCAUGGAAGUCUUCAAUAUUGCGGCUUGGAGGAGCGCCUCUCUUUUUCUCAAAGAGAGAUCUCUCUUGUAAGGGGCCAGGACCCAACAGAGGAUUGAGCAUCA
B3: 49511034_49520437_724_CDS_ENSG00000101126_ENST00000396029|human|control|control (ssRNA)
RNA: GGGAGUUCUACAGUCCGACGAUCUUUUGUCCGAUAGUCCUGGUUUUUCGUAAGUGAUGGGUCCCACAGUCCUACAUCCUCCCAUGUAGUGUUUUUCAAAUAAAAGUCAUUAGGUUCAAAUUGUUUAAAAUCUUCUAUAUGUUCCAACAGAGGAUUGAGCAUCA
B4: chr17:27717376:27717377:-_ENSMUSG00000024213_ENSMUST00000025050|mus_hu|FALSE|FALSE (ssRNA)
RNA: GGGAGUUCUACAGUCCGACGAUCUAUAGGACAAAUUAUUGGAAGUUUUCAUCUCAUACUGGUAUCUUUUAAUAAAAAAAAAAAAUUAAAAAUCAAAGAAAACGUCUGGCCAGGGCCAGGAUAAGACAAACAGGAACACUUCAGCAACAGAGGAUUGAGCAUCA
B5: chr14:89327608:89327609:+_ENSG00000165533_ENST00000346301|hu_mus|motif|central (ssRNA)
RNA: GGGAGUUCUACAGUCCGACGAUCUUCCUCAUAGAUCCUGGCAAUUCCACAAAGCAGGGUCACCUCUCCUGGAAACUUAUCGGAGCCUUGUUUAAAUAGAUUUAAAGCAGUCACAGGUUGAUCCAAUAUGAUAUAAACUUUUGCCAACAGAGGAUUGAGCAUCA
B6: chr1:184663225:184663226:-_ENSG00000116406_ENST00000318130|hu_hu|motif|central (ssRNA)
RNA: GGGAGUUCUACAGUCCGACGAUCACCAACAGAUUGUUUAGCAAGUCAUAGCUCAUCCUUCUCCAUCAUUUCAAAUGCUUCGGUAUCUUCAUUCCAGUCUGCUAAUAUGGAGUCUAUAGGCUGGACCUUUUUACCCCAGCUAACCAACAGAGGAUUGAGCAUCA

The other results are listed elsewhere or left out.

In this assay the target is T1, UNK ZnF1-3. Put plainly: nsRBNS (natural sequence RNA bind-n-seq); RBNS binding buffer (assumed for nsRBNS): 25 mM Tris pH 7.5, 150 mM KCl, 3 mM MgCl2, 0.01% Triton X-100, 500 ug/ml BSA, 20 U/ml SUPERase-In, 4 C; UNK is unkempt and MSI1 is Musashi-1; names of the RNAs are library labels; protein concentration not given here; high values mean tight binding.
B1 had a binding signal of 0.859 enrichment R.
With B2 the figure was 0.855 enrichment R.
The molecule B3 registered a binding signal of 0.858 enrichment R.
Regarding B4, the binding signal is 3.22 enrichment R.
Molecule B5 had a binding signal of 1.33 enrichment R.
With B6 the figure was 1.07 enrichment R.
